Measured values: paper PMC6919601, “Identification of Plasmodium dipeptidyl aminopeptidase allosteric inhibitors by high throughput screening” (PLoS ONE, 2019)
“And” between values parts separate entries of the source, which are not always exact repeats. Identical values can stand only once. Screen size: about 110,000 compounds; about 230 (0.21%) showed an effect of 50% or more. The list shows a part of the results.

molecular target: DPAP1 (Plasmodium falciparum, UniProt Q8IIJ9); test: primary screen, percent inhibition; read by cleavage of a fluorogenic dipeptide substrate; higher = more effect of the substance; set-up: species or system P. falciparum D10 trophozoite lysates; single well
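Also: 30 min substrate incubation versus DMSO and 10 µM JCP410 controls.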

DPAP1, sequence (Q8IIJ9 whole entry, looked up): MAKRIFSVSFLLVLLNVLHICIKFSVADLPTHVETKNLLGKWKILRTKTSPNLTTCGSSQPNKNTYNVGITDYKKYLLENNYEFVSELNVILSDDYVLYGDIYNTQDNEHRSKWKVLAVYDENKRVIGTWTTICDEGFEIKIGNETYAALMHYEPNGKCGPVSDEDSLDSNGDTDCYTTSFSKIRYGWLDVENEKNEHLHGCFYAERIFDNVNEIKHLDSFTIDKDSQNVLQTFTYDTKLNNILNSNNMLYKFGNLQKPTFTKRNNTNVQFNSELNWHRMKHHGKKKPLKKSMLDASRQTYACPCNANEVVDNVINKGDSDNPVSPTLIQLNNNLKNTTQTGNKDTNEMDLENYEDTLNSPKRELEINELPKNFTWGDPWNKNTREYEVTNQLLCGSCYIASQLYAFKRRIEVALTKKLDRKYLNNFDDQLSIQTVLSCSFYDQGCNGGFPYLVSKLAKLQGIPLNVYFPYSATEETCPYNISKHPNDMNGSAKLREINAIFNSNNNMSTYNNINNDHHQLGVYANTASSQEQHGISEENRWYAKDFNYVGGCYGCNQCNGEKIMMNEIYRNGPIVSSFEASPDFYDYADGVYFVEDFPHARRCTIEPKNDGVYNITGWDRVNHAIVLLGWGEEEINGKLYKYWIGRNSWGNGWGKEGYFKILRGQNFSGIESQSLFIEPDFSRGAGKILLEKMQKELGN

| SMILES | % Inhibition @ 10 uM |
| --- | --- |
| CC(=O)c1c(C)n(-c2ccc(Br)cc2)c2ccc(O)cc12 | 2.92% |
| O=C(N/C(=C/c1ccccc1)c1nc2ccccc2[nH]1)c1ccccc1 | 2.54% |
| C=CCc1cccc2cc(C(=O)Nc3ccccc3OC)c(=O)oc12 | -2% |
| NC(=O)CSc1nc2c(oc3ccccc32)c(=O)n1Cc1ccco1 | -1.71% |
| CC(=O)c1ccc(NC(=O)C2CCCCC2)cc1 | -1.52% |
| CC(C)N(CC#CC(C)(C)O)Cc1ccccc1 | -7.32% |
| COc1ccc(NC(=O)CN(c2ccc(F)cc2)S(C)(=O)=O)cc1 | -5.27% |
| Cc1c(CC(=O)O)c(=O)oc2c(C)c3occ(-c4ccc(F)cc4)c3cc12 | -2.92% |
| CS(=O)(=O)N(CC(=O)Nc1cc(Cl)cc(Cl)c1)c1cccc2ccccc12 | -1.35% |
| CCCCCC(=O)Nc1sc2c(c1C(N)=O)CCC(C)C2 (stereo not drawn) | -8.72% |
| CC(O)Cn1c2ccc(Cl)cc2c2cc(Cl)ccc21 (stereo not drawn) | -2.54% |
| O=C(Nc1nc(-c2ccc(Cl)cc2)cs1)c1cccnc1 | 5.05% |
| COc1ccc(CNCc2cc(F)ccc2F)cc1OC | -8.78% |
| Cc1ccc(C)c(Cn2c(=O)n(CCCC(=O)NCc3ccco3)c(=O)c3sccc32)c1 | 1.23% |
| CC(=O)N1CCc2c(sc3c2c(=O)n(Cc2ccccc2)c(=O)n3CC(=O)NCC2CCCO2)C1 (stereo not drawn) | 0.0579% |
| COc1cccc(N2C(=O)CC(N3CCOCC3)C2=O)c1 (stereo not drawn) | -4.43% |
| CCOC(=O)c1nnn(-c2nonc2N)c1-c1cc(OC)c(OC)c(OC)c1 | -1.82% |
| CCCN(CCC)S(=O)(=O)c1ccc(NC(=O)c2cccs2)cc1 | -0.185% |
| COc1ccc(CSCc2ccccc2)cc1C(=O)O | -1.82% |
| O=C1CC(N2CCN(c3ccccc3)CC2)C(=O)N1c1ccc2c(c1)OCCO2 (stereo not drawn) | -6.43% |
| Cc1c2cnn(CC(=O)NC(C)C34CC5CC(CC(C5)C3)C4)c(=O)c2c(C)n1Cc1ccccc1F (stereo not drawn) | 2.84% |
| COc1ccc(N2C(=O)C(Cl)=C(Nc3ccccc3F)C2=O)cc1 | 1.57% |
| CCC(N)C12CC3CC(CC(O)(C3)C1)C2 (stereo not drawn) | 2.59% |
| CCc1c(C)nc2cc(-c3cccc(Br)c3)nn2c1O | -0.891% |
| O=C(NCc1ccco1)C1CCN(S(=O)(=O)c2ccccc2)CC1 | -1.92% |

| SMILES | % Inhibition @ 10 uM |
| --- | --- |
| COc1ccc(CN2CCCC(C(=O)N3CCc4ccccc4C3)C2)cc1OC (stereo not drawn) | -1.17% |
| O=C(Cc1ccccc1)NCc1ccc(Cl)cc1 | -6.12% |
| COc1cc(NC(=O)c2ccc(OC(F)F)cc2)cc(OC)c1 | 0.431% |
| Cc1ccc(C)c(CNc2ccc3c[nH]nc3c2)c1 | -5.2% |
| Cc1cc(C)c(S(=O)(=O)NCCO)c(C)c1 | 0.774% |
| COC(=O)c1cc(S(=O)(=O)NCc2ccccc2OC)cn1C | -1.06% |
| CC1(C)CC(O)=C/C(=N/CCN2CCN(C(=O)Cc3ccc(Cl)cc3)CC2)C1 | -2.16% and -2.98% |
| CCC(=O)C1=C(c2ccc(OC)c(OC)c2)N(C(=O)CC)n2c(C)nnc2S1 | -4.11% |
| O=C1OC(c2cncc(Br)c2)=N/C1=C/c1ccc(Cl)c(Cl)c1 | -3.44% |
| CC1(C)CC(=O)Nc2cc(-c3ccccc3)n(-c3ccccc3)c2C1 | 4.01% |
| Cc1c(CNCCc2c[nH]c3ccccc23)c(C(=O)O)c(C)n1Cc1ccccc1F | 2.99% |
| CCOc1ccc(CCNCc2c(C(=O)O)n(Cc3ccccc3F)c3ccccc23)cc1OCC | -3.21% |
| Cc1[nH]c2ccc(C(=O)N3CCC(C)CC3)cc2c1C | -4.54% |
| Cc1cc(C(=O)Nc2cnn(Cc3ccccc3C)c2)no1 | -13% |
| CCCC(=O)Nc1nc2n(n1)C(c1ccc(OC)cc1)C=C(c1ccccc1)N2 (stereo not drawn) | 1.62% |
| Cc1c(C(=O)N(C)c2cccc(Cl)c2)cnn1-c1ccccc1 | -3.45% |
| COc1ccc(N(CC(=O)Nc2c(C)cccc2C)S(C)(=O)=O)c(OC)c1 | -7.23% |
| COc1ccc(CNCc2cccn2-c2sc(C)c(C)c2C(=O)O)cc1 | 4.83% |
| CC(=O)Nc1nn2c(-c3ccccc3C)nnc2s1 | -1.72% |
| O=C(NCc1ccccn1)C1CCN(c2nnc(N3CCCC3=O)s2)CC1 | -4.68% |
| CCOc1ccccc1C(=O)N(Cc1ccccc1)c1ccccn1 | 1.37% |
| CN(CC(=O)N1CCC(Cc2ccccc2)CC1)S(=O)(=O)c1ccc2[nH]c3c(c2c1)CCCC3 | -3.05% |
| CCn1ccnc(N2CCCCC2)/c1=N/c1ccc(OC)cc1 | -3.77% |
| COc1ccc2c(c1)c(=O)cc(-c1ccccc1)n2C | 0.843% |
| COc1ccc(NCN2C(=O)S/C(=C/c3ccc(F)cc3)C2=O)c(OC)c1 | -0.171% |

| SMILES | % Inhibition @ 10 uM |
| --- | --- |
| CC(C)CC(NC(=O)c1cccc(NC(=O)N2CCN(CC(=O)N3CCCC3)CC2)c1)C(=O)NCC#N (stereo not drawn) | 3.66% |
| OC(CNCc1ccccc1)C12CC3CC(CC(C3)C1)C2 (stereo not drawn) | 1.88% |
| COc1ccc(-c2csc(-c3cc4cc(OC)ccc4oc3=O)n2)cc1 | 1.74% |
| CN1CCC(N[C@H]2CC[C@H](O)CC2)CC1 | -5.11% |
| Cc1nc(-c2ccccc2)nc(/N=C/N(C)C)c1-c1cc(C)c2c(C)nc(-c3ccccc3)nc2n1 | 1.26% |
| N#CCCn1c(=S)n(CCC#N)c2ccccc21 | -5.28% |
| CCCCN(C)CCNC(=O)c1cc2cc3cc(OC)ccc3nc2s1 | 83.9% |
| O=C(O)C1C2C=CC(C2)C1C(=O)NCc1ccccc1 (stereo not drawn) | 4.8% |
| CCOc1ccc(/C=c2\sc3nc(-c4ccc(C)cc4)nn3c2=O)cc1OC | 0.222% |
| OC1CCCN(Cc2ccccc2F)C1 (stereo not drawn) | -1.77% |
| CNc1c(NC(=O)c2ccccc2OC)c(=O)oc2ccccc12 | 3.99% |
| COCCOc1nc2c(c(=O)n(C)c(=O)n2C)n1C(C)c1ccccc1 (stereo not drawn) | 1.96% |
| COc1ccc(C2=N/C(=C\c3cccc(C(F)(F)F)c3)C(=O)O2)cc1OC | 6.11% |
| Cc1cc(NS(=O)(=O)c2ccc(NC(=O)COc3cc(C)c(Cl)c(C)c3)cc2)nc(C)n1 | -10.2% |
| O=C(O)c1ccccc1C(=O)Nc1ccccc1C(=O)N1CCN(c2cccc(Cl)c2)CC1 | -2.09% |
| CC1=Nc2ccc(C)c3nc(C)cc(c23)N1c1ccc(C)cc1 | -6.49% |
| CN(C)c1ccc(NC(=O)c2cccc(N3C(=O)c4cccnc4C3=O)c2)cc1 | -0.171% |
| Cc1ccc(N(CC(=O)Nc2ccc3c(c2)OCO3)S(C)(=O)=O)cc1C | -4.53% |
| CCn1c2ccccc2c2cc(CN3CCC(O)(c4ccc(Br)cc4)CC3)ccc21 | -3.6% |
| O=C(NCc1ccco1)c1cnn2c1NC(c1ccccc1)CC2C(F)(F)F (stereo not drawn) | -3.49% |
| CCOc1ccc(Br)cc1C1C(C#N)=C(N)Oc2[nH]nc(C)c21 (stereo not drawn) | -0.661% |
| CCC(C(=O)NCCc1ccc(S(N)(=O)=O)cc1)c1ccccc1 (stereo not drawn) | -14.1% |
| Cc1ccc(S(=O)(=O)N2CCN(CCOc3ccc(C(C)C)cc3)CC2)cc1 | 2.32% |
| O=C(O)c1ccc(-n2cccn2)cc1 | -5.96% |
| CC1(C)CC(=O)c2c(n[nH]c2Cc2ccccc2)C1 | 3.99% |
